Measured values reported in the supplement of paper PMC4967469.
A lower IC50 marks a more sensitive line; where the fit passes the top or lowest dose, that dose stands as a limit. AUC is the area under the same curve over the 256-fold range up to the top dose, as a fraction; the more sensitive the line, the further below 1. For part of these data: Where the top dose is marked as inferred, it was derived from the fitted curves, not read from the paper.

Columns and labels:
Assay in all cases: Viability of human cancer cell lines after 72 h of drug (GDSC screen)
[1] = compound: CNCc1ccc(-c2[nH]c3cc(F)cc4c3c2CCNC4=O)cc1 [AG-014699]; details: top dose 5 µM; top dose inferred
Experimental: (§1)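 Human cancer cell lines in 384-well plates, medium with 10% serum, drug for 72 h over a 256-fold dose range (nine 2-fold or five 4-fold steps up to the top dose). Adherent lines were fixed and stained with the nucleic acid dye Syto60, suspension lines read with resazurin; signal relative to control wells, capped at 0 and 100%. One two-parameter sigmoid per drug and line, fitted in a mixed model over all curves with the slope shared within a line.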

[2] = compound: N=C(N)NC(=N)NCCc1ccccc1 [Phenformin]; details: top dose 4000 µM; top dose inferred
Experimental: as §1

[3] = compound: COc1cc2ncnc(Nc3cc(Br)c(O)c(Br)c3)c2cc1OC [WHI-P97]; details: top dose 10.24 µM; top dose inferred
Experimental: as §1

[4] = compound: COc1cc2nccc(Oc3ccc(NC(=O)C4(C(=O)Nc5ccc(F)cc5)CC4)cc3)c2cc1OC [XL-184]; details: top dose 5.12 µM; top dose inferred
Experimental: as §1

[5] = compound: CCC1=C[C@@H]2CN(C1)Cc1c([nH]c3ccccc13)[C@@](C(=O)OC)(c1cc3c(cc1OC)N(C)[C@H]1[C@@](O)(C(=O)OC)[C@H](OC(C)=O)[C@]4(CC)C=CCN5CC[C@]31[C@@H]54)C2 [Vinorelbine]; details: top dose 0.064 µM; top dose inferred
Experimental: as §1

[6] = compound: O=c1cc(CN2CCOCC2)occ1OCCCCCSc1ccnc2cc(C(F)(F)F)ccc12 [EHT 1864]; details: top dose 10 µM; top dose inferred
Experimental: as §1

[7] = compound: C=CC(=O)Nc1cc(NC(=O)c2ccc(C)c(NC(=O)c3ccno3)c2)cc(C(F)(F)F)c1 [QL-XI-92]; details: top dose 10.24 µM; top dose inferred
Experimental: as §1

[8] = compound: O=c1cc(N2CCOCC2)oc2c(-c3cccc4c3sc3ccccc34)cccc12 [NU-7441]; details: top dose 2 µM; top dose inferred
Experimental: as §1

[9] = compound: COc1cc2ncnc(Nc3ccc(F)c(Cl)c3)c2cc1OCCCN1CCOCC1 [Gefitinib]; details: top dose 0.5 µM
Experimental: as §1

Cell Line | AUC [1] | IC50 [1] | AUC [2] | IC50 [2] | AUC [3] | IC50 [3] | AUC [4] | IC50 [4] | AUC [5] | IC50 [5] | AUC [6] | IC50 [6] | AUC [7] | IC50 [7] | AUC [8] | IC50 [8] | AUC [9] | IC50 [9]
HCC1954 (breast, adherent) | 0.972 | > 5 µM | 0.66 | 751 µM | 0.976 | > 10.2 µM | 0.983 | > 5.12 µM | 0.616 | 0.00879 µM | 0.939 | > 10 µM | 0.951 | > 10.2 µM | 0.979 | > 2 µM | 0.963 | > 0.5 µM
HCC-15 (lung squamous cell carcinoma, adherent) | 0.963 | > 5 µM | 0.783 | 2200 µM | 0.977 | > 10.2 µM | 0.967 | > 5.12 µM | 0.499 | 0.00396 µM | 0.924 | > 10 µM | 0.937 | > 10.2 µM | 0.945 | > 2 µM | 0.953 | > 0.5 µM
HCC-44 (lung adenocarcinoma, adherent) | 0.973 | > 5 µM | 0.611 | 500 µM | 0.966 | > 10.2 µM | 0.868 | 4.5 µM | 0.408 | 0.00226 µM | 0.982 | > 10 µM | 0.923 | > 10.2 µM | 0.874 | 1.88 µM | 0.953 | > 0.5 µM
HCC-56 (large intestine, adherent) | 0.964 | > 5 µM | 0.68 | 808 µM | 0.987 | > 10.2 µM | 0.948 | > 5.12 µM | 0.705 | 0.0154 µM | 0.975 | > 10 µM | 0.966 | > 10.2 µM | 0.987 | > 2 µM | 0.959 | > 0.5 µM
HCT-15 (large intestine, adherent) | 0.985 | > 5 µM | 0.725 | 1140 µM | 0.977 | > 10.2 µM | 0.938 | > 5.12 µM | 0.959 | > 0.064 µM | 0.888 | > 10 µM | 0.966 | > 10.2 µM | 0.974 | > 2 µM | 0.983 | > 0.5 µM
HEC-1 (endometrium, adherent) | 0.922 | > 5 µM | 0.893 | > 4000 µM | 0.971 | > 10.2 µM | 0.989 | > 5.12 µM | 0.743 | 0.0193 µM | 0.946 | > 10 µM | 0.987 | > 10.2 µM | 0.952 | > 2 µM | 0.975 | > 0.5 µM
HGC-27 (stomach, adherent) | 0.81 | 2.15 µM | 0.453 | 190 µM | 0.942 | > 10.2 µM | 0.911 | > 5.12 µM | 0.354 | 0.00169 µM | 0.913 | > 10 µM | 0.932 | > 10.2 µM | 0.986 | > 2 µM | 0.976 | > 0.5 µM
HN (head and neck, adherent) | 0.973 | > 5 µM | 0.027 | < 15.6 µM | 0.984 | > 10.2 µM | 0.988 | > 5.12 µM | 0.97 | > 0.064 µM | 0.97 | > 10 µM | 0.986 | > 10.2 µM | 0.976 | > 2 µM | 0.882 | 0.473 µM
